# Results as given in the supplement of paper PMC8728848.
# The list shows a part of the results.
# What was measured:
# Assay in all cases: glycan array binding signal (z-score within array); higher = stronger binding
# Details in all cases: glycan notation: IUPAC condensed, linker removed
# [1] = target: GlcNAc(b1-2)Gal(b1-3)GalNAc
# Procedure, shortened: (§1)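 Negative Z-scores can be read as non-binding. The Z-score is calculated within each array and then averaged across arrays of one protein sequence at different concentrations or buffers and across linkers. Arrays, 3228 in all, were curated from the Consortium for Functional Glycomics database and kept only where the protein sequence was available.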
# [2] = target: GlcNAc(b1-2)Man(a1-3)[GlcNAc(b1-2)Man(a1-6)]Man(b1-4)GlcNAc(b1-4)GlcNAc
# Procedure, shortened: as §1
# [3] = target: GlcNAc(b1-2)Man(a1-3)[GlcNAc(b1-2)Man(a1-6)]Man(b1-4)GlcNAc(b1-4)[Fuc(a1-6)]GlcNAc
# Procedure, shortened: as §1
# [4] = target: GlcNAc(b1-2)Man(a1-3)[GlcNAc(b1-4)][GlcNAc(b1-2)Man(a1-6)]Man(b1-4)GlcNAc(b1-4)GlcNAc
# Procedure, shortened: as §1
# [5] = target: GlcNAc(b1-2)Man(a1-3)[GlcNAc(b1-4)][GlcNAc(b1-2)Man(a1-6)]Man(b1-4)GlcNAc(b1-4)[Fuc(a1-6)]GlcNAc
# Procedure, shortened: as §1
# [6] = target: GlcNAc(b1-2)[GlcNAc(b1-4)]Man(a1-3)[GlcNAc(b1-2)Man(a1-6)]Man(b1-4)GlcNAc(b1-4)GlcNAc
# Procedure, shortened: as §1
# [7] = target: GlcNAc(b1-2)[GlcNAc(b1-4)]Man(a1-3)[GlcNAc(b1-4)][GlcNAc(b1-2)Man(a1-6)]Man(b1-4)GlcNAc(b1-4)GlcNAc
# Procedure, shortened: as §1
# [8] = target: GlcNAc(b1-2)[GlcNAc(b1-4)]Man(a1-3)[GlcNAc(b1-4)][GlcNAc(b1-2)[GlcNAc(b1-6)]Man(a1-6)]Man(b1-4)GlcNAc(b1-4)GlcNAc
# Procedure, shortened: as §1
# [9] = target: GlcNAc(b1-2)[GlcNAc(b1-4)]Man(a1-3)[GlcNAc(b1-4)][GlcNAc(b1-2)[GlcNAc(b1-6)]Man(a1-6)]Man(b1-4)GlcNAc(b1-4)[Fuc(a1-6)]GlcNAc
# Procedure, shortened: as §1
# [10] = target: GlcNAc(b1-2)[GlcNAc(b1-6)]Man(a1-6)[GlcNAc(b1-2)Man(a1-3)]Man(b1-4)GlcNAc(b1-4)GlcNAc
# Procedure, shortened: as §1
# [11] = target: GlcNAc(b1-2)[GlcNAc(b1-6)]Man(a1-6)[GlcNAc(b1-2)Man(a1-3)]Man(b1-4)GlcNAc(b1-4)[Fuc(a1-6)]GlcNAc
# Procedure, shortened: as §1
# [12] = target: GlcNAc(b1-2)[GlcNAc(b1-6)]Man(a1-6)[GlcNAc(b1-4)][GlcNAc(b1-2)Man(a1-3)]Man(b1-4)GlcNAc(b1-4)GlcNAc
# Procedure, shortened: as §1
# GlcNAc(b1-3)Fuc = target: GlcNAc(b1-3)Fuc
# Procedure, shortened: as §1
# GlcNAc(b1-3)Gal = target: GlcNAc(b1-3)Gal
# Procedure, shortened: as §1
# [13] = target: GlcNAc(b1-3)Gal(b1-3)GalNAc
# Procedure, shortened: as §1
# GlcNAc(b1-3)Gal(b1-4)Glc = target: GlcNAc(b1-3)Gal(b1-4)Glc
# Procedure, shortened: as §1
# [14] = target: GlcNAc(b1-3)Gal(b1-4)GlcNAc
# Procedure, shortened: as §1
# [15] = target: GlcNAc(b1-3)Gal(b1-4)GlcNAc(b1-2)Man(a1-3)[GlcNAc(b1-3)Gal(b1-4)GlcNAc(b1-2)Man(a1-6)]Man(b1-4)GlcNAc(b1-4)GlcNAc
# Procedure, shortened: as §1
# [16] = target: GlcNAc(b1-3)Gal(b1-4)GlcNAc(b1-2)Man(a1-3)[GlcNAc(b1-3)Gal(b1-4)GlcNAc(b1-2)Man(a1-6)]Man(b1-4)GlcNAc(b1-4)[Fuc(a1-6)]GlcNAc
# Procedure, shortened: as §1
# [17] = target: GlcNAc(b1-3)Gal(b1-4)GlcNAc(b1-2)[GlcNAc(b1-3)Gal(b1-4)GlcNAc(b1-6)]Man(a1-6)[GlcNAc(b1-3)Gal(b1-4)GlcNAc(b1-2)Man(a1-3)]Man(b1-4)GlcNAc(b1-4)GlcNAc
# Procedure, shortened: as §1
# [18] = target: GlcNAc(b1-3)Gal(b1-4)GlcNAc(b1-3)Gal(b1-4)GlcNAc
# Procedure, shortened: as §1
# [19] = target: GlcNAc(b1-3)Gal(b1-4)GlcNAc(b1-3)Gal(b1-4)GlcNAc(b1-2)Man(a1-3)[GlcNAc(b1-3)Gal(b1-4)GlcNAc(b1-3)Gal(b1-4)GlcNAc(b1-2)Man(a1-6)]Man(b1-4)GlcNAc(b1-4)GlcNAc
# Procedure, shortened: as §1
# [20] = target: GlcNAc(b1-3)Gal(b1-4)GlcNAc(b1-3)Gal(b1-4)GlcNAc(b1-2)Man(a1-3)[GlcNAc(b1-3)Gal(b1-4)GlcNAc(b1-3)Gal(b1-4)GlcNAc(b1-2)Man(a1-6)]Man(b1-4)GlcNAc(b1-4)[Fuc(a1-6)]GlcNAc
# Procedure, shortened: as §1
# [21] = target: GlcNAc(b1-3)Gal(b1-4)GlcNAc(b1-3)Gal(b1-4)GlcNAc(b1-2)[GlcNAc(b1-3)Gal(b1-4)GlcNAc(b1-3)Gal(b1-4)GlcNAc(b1-6)]Man(a1-6)[GlcNAc(b1-3)Gal(b1-4)GlcNAc(b1-3)Gal(b1-4)GlcNAc(b1-2)Man(a1-3)]Man(b1-4)GlcNAc(b1-4)[Fuc(a1-6)]GlcNAc
# Procedure, shortened: as §1
# [22] = target: GlcNAc(b1-3)Gal(b1-4)GlcNAc(b1-3)Gal(b1-4)GlcNAc(b1-3)Gal(b1-4)GlcNAc(b1-2)Man(a1-3)[GlcNAc(b1-3)Gal(b1-4)GlcNAc(b1-3)Gal(b1-4)GlcNAc(b1-3)Gal(b1-4)GlcNAc(b1-2)Man(a1-6)]Man(b1-4)GlcNAc(b1-4)GlcNAc
# Procedure, shortened: as §1
# [23] = target: GlcNAc(b1-3)Gal(b1-4)GlcNAc(b1-3)Gal(b1-4)GlcNAc(b1-3)Gal(b1-4)GlcNAc(b1-2)Man(a1-3)[GlcNAc(b1-3)Gal(b1-4)GlcNAc(b1-3)Gal(b1-4)GlcNAc(b1-3)Gal(b1-4)GlcNAc(b1-2)Man(a1-6)]Man(b1-4)GlcNAc(b1-4)[Fuc(a1-6)]GlcNAc
# Procedure, shortened: as §1
# [24] = target: GlcNAc(b1-3)Gal(b1-4)GlcNAc(b1-3)Gal(b1-4)GlcNAc(b1-3)Gal(b1-4)GlcNAc(b1-2)[GlcNAc(b1-3)Gal(b1-4)GlcNAc(b1-3)Gal(b1-4)GlcNAc(b1-3)Gal(b1-4)GlcNAc(b1-6)]Man(a1-6)[GlcNAc(b1-3)Gal(b1-4)GlcNAc(b1-3)Gal(b1-4)GlcNAc(b1-3)Gal(b1-4)GlcNAc(b1-2)Man(a1-3)]Man(b1-4)GlcNAc(b1-4)[Fuc(a1-6)]GlcNAc
# Procedure, shortened: as §1
# [25] = target: GlcNAc(b1-3)Gal(b1-4)GlcNAc(b1-3)Gal(b1-4)GlcNAc(b1-3)Gal(b1-4)GlcNAc(b1-3)Gal(b1-4)GlcNAc(b1-2)Man(a1-3)[GlcNAc(b1-3)Gal(b1-4)GlcNAc(b1-3)Gal(b1-4)GlcNAc(b1-3)Gal(b1-4)GlcNAc(b1-3)Gal(b1-4)GlcNAc(b1-2)Man(a1-6)]Man(b1-4)GlcNAc(b1-4)GlcNAc
# Procedure, shortened: as §1
# [26] = target: GlcNAc(b1-3)Gal(b1-4)GlcNAc(b1-3)Gal(b1-4)GlcNAc(b1-3)Gal(b1-4)GlcNAc(b1-3)Gal(b1-4)GlcNAc(b1-2)Man(a1-3)[GlcNAc(b1-3)Gal(b1-4)GlcNAc(b1-3)Gal(b1-4)GlcNAc(b1-3)Gal(b1-4)GlcNAc(b1-3)Gal(b1-4)GlcNAc(b1-2)Man(a1-6)]Man(b1-4)GlcNAc(b1-4)[Fuc(a1-6)]GlcNAc
# Procedure, shortened: as §1
# [27] = target: GlcNAc(b1-3)Gal(b1-4)GlcNAc(b1-3)Gal(b1-4)GlcNAc(b1-3)Gal(b1-4)GlcNAc(b1-3)Gal(b1-4)GlcNAc(b1-2)[GlcNAc(b1-3)Gal(b1-4)GlcNAc(b1-3)Gal(b1-4)GlcNAc(b1-3)Gal(b1-4)GlcNAc(b1-3)Gal(b1-4)GlcNAc(b1-6)]Man(a1-6)[GlcNAc(b1-3)Gal(b1-4)GlcNAc(b1-3)Gal(b1-4)GlcNAc(b1-3)Gal(b1-4)GlcNAc(b1-3)Gal(b1-4)GlcNAc(b1-2)Man(a1-3)]Man(b1-4)GlcNAc(b1-4)[Fuc(a1-6)]GlcNAc
# Procedure, shortened: as §1
# [28] = target: GlcNAc(b1-3)Gal(b1-4)GlcNAc(b1-3)Gal(b1-4)GlcNAc(b1-3)GalNAc
# Procedure, shortened: as §1
# [29] = target: GlcNAc(b1-3)Gal(b1-4)GlcNAc(b1-3)GalNAc
# Procedure, shortened: as §1
# [30] = target: GlcNAc(b1-3)Gal(b1-4)GlcNAc(b1-3)[GlcNAc(b1-3)Gal(b1-4)GlcNAc(b1-3)]GalNAc
# Procedure, shortened: as §1
# [31] = target: GlcNAc(b1-3)Gal(b1-4)GlcNAc(b1-6)[Gal(b1-3)]GalNAc
# Procedure, shortened: as §1
# [32] = target: GlcNAc(b1-3)Gal(b1-4)GlcNAc(b1-6)[GlcNAc(b1-3)Gal(b1-3)]GalNAc
# Procedure, shortened: as §1
# [33] = target: GlcNAc(b1-3)Gal(b1-4)GlcNAc(b1-6)[GlcNAc(b1-3)]Gal(b1-4)GlcNAc
# Procedure, shortened: as §1
# GlcNAc(b1-3)GalNAc = target: GlcNAc(b1-3)GalNAc
# Procedure, shortened: as §1
binder,measurement,setting,value
B1257 (Bifidobacterium sp) (protein) MKKSIRLVAAIAALAMTAGISACGSSTNGNQAKSDVTAQDVETALTDTSKNVELTVWAYSAKQMEPTVKAFEKKYPHIKINFVNTGAAGDHFTKFQNVVQAQKDIPDVVQMGANKFQQFAVSGALLNFANDSIEKAWSKLYTKTAWAQVHYAGGLYGAPQDATPLANYVRKDILDEHNLQVPESWEDIYNEGIKLHKEDSNKYMGILGSDISFFTNLYRSVGARLWKVNSVDDVELTMNSGKAKEFTEFLQKCLKDGVLEGGTVFTDEFNRSINDGRYATFINENWMGNTYKEQNPSLKGKMVVAAPPSWKGQPYQSSSVGSMMSVSAACPKEKQAAALAFINWLDSDKDAIQSWQDTNNGNFFMAASVYQDDENQRNKKETDGYYANDDVNAVYFDSMDKVNTDWEYLPFMSQVEVVFNDVIVPQMNENGDLVGAMAKAQQELKTYAKDNGFKVTTDAD,glycan array binding signal (z-score),[1],-0.098
same,glycan array binding signal (z-score),[2],-0.081
same,glycan array binding signal (z-score),[3],-0.09
same,glycan array binding signal (z-score),[4],0.002
same,glycan array binding signal (z-score),[5],-0.052
same,glycan array binding signal (z-score),[6],-0.137
same,glycan array binding signal (z-score),[7],-0.186
same,glycan array binding signal (z-score),[8],-0.123
same,glycan array binding signal (z-score),[9],-0.159
same,glycan array binding signal (z-score),[10],0.069
same,glycan array binding signal (z-score),[11],-0.035
same,glycan array binding signal (z-score),[12],0.005
same,glycan array binding signal (z-score),GlcNAc(b1-3)Fuc,-0.127
same,glycan array binding signal (z-score),GlcNAc(b1-3)Gal,-0.097
same,glycan array binding signal (z-score),[13],-0.113
same,glycan array binding signal (z-score),GlcNAc(b1-3)Gal(b1-4)Glc,-0.088
same,glycan array binding signal (z-score),[14],-0.138
same,glycan array binding signal (z-score),[15],-0.045
same,glycan array binding signal (z-score),[16],0.25
same,glycan array binding signal (z-score),[17],0.067
same,glycan array binding signal (z-score),[18],-0.154
same,glycan array binding signal (z-score),[19],0.228
same,glycan array binding signal (z-score),[20],0.082
same,glycan array binding signal (z-score),[21],0.092
same,glycan array binding signal (z-score),[22],-0.027
same,glycan array binding signal (z-score),[23],-0.011
same,glycan array binding signal (z-score),[24],0.099
same,glycan array binding signal (z-score),[25],-0.069
same,glycan array binding signal (z-score),[26],-0.048
same,glycan array binding signal (z-score),[27],0.001
same,glycan array binding signal (z-score),[28],-0.009
same,glycan array binding signal (z-score),[29],-0.148
same,glycan array binding signal (z-score),[30],-0.093
same,glycan array binding signal (z-score),[31],-0.09
same,glycan array binding signal (z-score),[32],-0.05
same,glycan array binding signal (z-score),[33],-0.168
same,glycan array binding signal (z-score),GlcNAc(b1-3)GalNAc,-0.107
